The target in assay [1] is T1, Fortilin (translationally controlled tumor protein, TCTP), endogenous (human (endogenous in SH-SY5Y)) (UniProt P13693).
T1 sequence: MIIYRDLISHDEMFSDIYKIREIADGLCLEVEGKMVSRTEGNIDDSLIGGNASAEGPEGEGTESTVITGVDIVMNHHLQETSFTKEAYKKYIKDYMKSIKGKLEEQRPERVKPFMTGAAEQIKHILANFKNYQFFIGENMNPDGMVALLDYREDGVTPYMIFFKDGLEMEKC
Kind of assay: co-IP; IP with anti-Fortilin antibody and protein A/G agarose beads from cell lysates (shRNA-NC and OTUD3 knockdown cells); HEPES lysis buffer (20 mM HEPES pH 7.2, 50 mM NaCl, 1 mM NaF, 0.5% Triton X-100), 4 °C; blots for IRE1α and OTUD3; endogenous proteins.

Amino acid sequences for entries named in this document (tags omitted). Residues count along the entry.
UniProt O75460, residues 19-977: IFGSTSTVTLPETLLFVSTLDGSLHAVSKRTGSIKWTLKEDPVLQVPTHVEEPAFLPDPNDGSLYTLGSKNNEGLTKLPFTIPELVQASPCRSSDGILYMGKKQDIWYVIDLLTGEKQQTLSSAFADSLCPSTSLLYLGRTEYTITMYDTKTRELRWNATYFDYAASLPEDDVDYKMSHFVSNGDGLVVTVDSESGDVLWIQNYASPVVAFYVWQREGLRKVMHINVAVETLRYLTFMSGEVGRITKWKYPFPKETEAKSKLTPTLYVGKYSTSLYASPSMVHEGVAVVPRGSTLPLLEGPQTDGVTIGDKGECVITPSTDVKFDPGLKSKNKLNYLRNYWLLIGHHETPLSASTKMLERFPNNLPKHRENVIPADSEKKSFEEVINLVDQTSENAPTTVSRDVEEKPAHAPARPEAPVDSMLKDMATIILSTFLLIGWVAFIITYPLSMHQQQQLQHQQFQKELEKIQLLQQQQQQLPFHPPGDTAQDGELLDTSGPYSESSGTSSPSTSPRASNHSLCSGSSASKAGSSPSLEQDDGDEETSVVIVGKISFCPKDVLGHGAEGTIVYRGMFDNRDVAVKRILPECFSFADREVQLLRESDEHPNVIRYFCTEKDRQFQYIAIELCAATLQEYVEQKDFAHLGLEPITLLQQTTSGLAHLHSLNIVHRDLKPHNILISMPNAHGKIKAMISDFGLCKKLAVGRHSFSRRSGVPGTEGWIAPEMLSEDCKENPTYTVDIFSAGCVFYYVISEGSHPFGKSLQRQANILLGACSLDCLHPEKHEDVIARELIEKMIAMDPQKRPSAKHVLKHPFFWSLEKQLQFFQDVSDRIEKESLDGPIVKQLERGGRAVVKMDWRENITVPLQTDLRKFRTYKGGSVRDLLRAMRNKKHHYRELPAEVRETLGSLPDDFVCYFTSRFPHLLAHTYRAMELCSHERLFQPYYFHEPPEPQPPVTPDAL

Assay [2] has as its target inositol-requiring enzyme 1α (IRE1α), endogenous (human (endogenous in SH-SY5Y)) (UniProt O75460). Kind of assay: co-IP; IP with anti-IRE1α antibody and protein A/G agarose beads from lysates of shRNA-NC and OTUD3 knockdown cells; HEPES lysis buffer (20 mM HEPES pH 7.2, 50 mM NaCl, 1 mM NaF, 0.5% Triton X-100), 4 °C; blots for Bip, Fortilin and OTUD3; endogenous proteins.

The target in the next assay is T2, Myc-Fortilin (UniProt P13693).
T2 sequence: T1 sequence
The assay is described as follows: co-IP; exogenous Co-IP of OTUD3 domain constructs with Fortilin in transfected cells; HEPES lysis buffer, protein A/G agarose beads, 4 °C.

No constants are given. Whether binding was seen depends on the method and setting. Binding seen in cells or lysates may run through a third protein. Some results given as binding are weak or reduced against the parent protein; the word gives no strength. For some assays here: Tags and fused reporters may be left off the sequences shown.

Regarding “inositol-requiring enzyme 1α (IRE1α), endogenous (from UniProt O75460 19-977)”, the binding result in assay [1] is given as “binds”.

B1: OTU domain-containing protein 3 (OTUD3), endogenous (enzyme, UniProt Q5T2D3 1-398)
chain: MSRKQAAKSRPGSGSRKAEAERKRDERAARRALAKERRNRPESGGGGGCEEEFVSFANQLQALGLKLREVPGDGNCLFRALGDQLEGHSRNHLKHRQETVDYMIKQREDFEPFVEDDIPFEKHVASLAKPGTFAGNDAIVAFARNHQLNVVIHQLNAPLWQIRGTEKSSVRELHIAYRYGEHYDSVRRINDNSEAPAHLQTDFQMLHQDESNKREKIKTKGMDSEDDLRDEVEDAVQKVCNATGCSDFNLIVQNLEAENYNIESAIIAVLRMNQGKRNNAEENLEPSGRVLKQCGPLWEEGGSGARIFGNQGLNEGRTENNKAQASPSEENKANKNQLAKVTNKQRREQQWMEKKKRQEERHRHKALESRGSHRDNNRSEAEANTQVTLVKTFAALNI
With B1, the binding result is reported as “binds” in assay [1] and “no binding” in assay [2].

B2: Fortilin (translationally controlled tumor protein, TCTP), endogenous (protein, UniProt P13693 1-172)
chain: T1 sequence
For the molecule B2, the binding entry in assay [2] is recorded as “binds”.

B3: Flag-OTU (OTU domain of OTUD3) (domain or fragment, UniProt Q5T2D3 65-189)
chain: LKLREVPGDGNCLFRALGDQLEGHSRNHLKHRQETVDYMIKQREDFEPFVEDDIPFEKHVASLAKPGTFAGNDAIVAFARNHQLNVVIHQLNAPLWQIRGTEKSSVRELHIAYRYGEHYDSVRRI
Turning to B3, the binding entry in the assay with Myc-Fortilin was “binds”.

For the origin of these results see publication PMC10135230.
